The subject of the data set is ATP. In words: switch fluorescence ratio, 500 uM ATP over buffer (Cy3 cluster intensity, sum of 5 cycles each) (fold (ratio)); higher = stronger signal-on switching upon ATP binding; sequences stand for … in TCGTCGGCAGCGTCAGATGTGTATAAGAGACAGTTTTTTTTTTTTTTTTTTTTTTTTT…TC. The note with it: aptamer strand: ATP DNA aptamer (quencher-CACCTGGGGGAGTATTGCGGAGGAAGG + anchor), 100 nM annealed; ATP concentration: 500 uM; one replicate. The gist of the method: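 The fluorescence ratio divides summed target-cycle Cy3 intensity by summed buffer-cycle Cy3 intensity for each cluster and is averaged per switch-domain sequence. Cy3-labelled switching-strand clusters on a modified Illumina MiSeq flow-cell were annealed to 100 nM quencher-labelled ATP aptamer, then imaged in selection buffer and again after 15 min with 500 uM ATP at 22 °C. Five such cycles were run, with NaOH stripping and re-annealing between them, and clusters outside 100-1000 RFU were excluded.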

Values marked as one replicate rest on one cluster of the flow cell; about a third of the high ones do not repeat.
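Note: ATP exposure 15 min at 22 °C before imaging.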

For the sequence TTTACTGTGC, the switch fluorescence ratio was 1.2. As to AGCATATATC, the switch fluorescence ratio is 2.69. Under CTGGTAGTTC stands 1.02; under AATTCAATG, 1.01. In the case of TGTGTCAACC, the switch fluorescence ratio was 0.988. Take TACGAAACCG: the switch fluorescence ratio is 1.17. As for TTCTTAGAGC, the switch fluorescence ratio is 0.985. On to AATCGACTCC, for which the switch fluorescence ratio stood at 1.5.

Take AGAATCGAGA: the switch fluorescence ratio was determined as 0.983. Turning to ATAGCTCGGT, the switch fluorescence ratio came to 0.96. With GCCGGTCGGC, the switch fluorescence ratio came out at 0.989.

As to TTGGTGTGCG, the switch fluorescence ratio amounted to 0.976.

With ACATTGATAG, the switch fluorescence ratio is 1.05. As for GATTATGTCT, the switch fluorescence ratio amounted to 0.958.

Take GATGGGCAAG: the switch fluorescence ratio is 1.02.

On to TATTCGTTTA, for which the switch fluorescence ratio is 1. In the case of TGTGTATG, the switch fluorescence ratio came out at 1.03. Regarding TGGGGAATTA, the switch fluorescence ratio came to 0.999.

As to ATCGGACTGG, the switch fluorescence ratio stood at 1. Take GCGCTAGTCA: the switch fluorescence ratio is 0.993. Under CGGGGAGTA stands 1.02; under GCCGTACGCG, 1.03; under AAACACGGGG, 1.1. Turning to GCAGGAGGAG, the switch fluorescence ratio was 1.01. Consider TCGGCCCGAG, for which the switch fluorescence ratio amounted to 0.997. For TGTGCTAATA, the switch fluorescence ratio worked out at 0.965.

For the sequence GGGAGTTGGT, the switch fluorescence ratio amounted to 0.999. In the case of ACTTGCTTCT, the switch fluorescence ratio amounted to 0.975. Then TTGCGAACGG, with 1.01; and GCACTTTGTA, with 1.02.

As to CCTAATTGG, the switch fluorescence ratio worked out at 0.967. Then TGAATTACAG, with 1.03; and TTAACTTGTT, with 1.02; and GGGAGATCAG, with 1.01. Regarding GCCATATGTT, the switch fluorescence ratio turned out to be 1.02. Regarding GATAGGATGC, the switch fluorescence ratio was found to be 1.01. Turning to GAACATTTCA, the switch fluorescence ratio is 0.997.

As to CCTCTCATGT, the switch fluorescence ratio came out at 1.33. ATGTTCCTTC: the switch fluorescence ratio turned out to be 1.02.

For the sequence TAGCTTAT, the switch fluorescence ratio stood at 1.

GCTAGCTGTA: the switch fluorescence ratio amounted to 1.04. As for CACCAAGCTA, the switch fluorescence ratio turned out to be 1.09. For the sequence GGTACGGTTG, the switch fluorescence ratio amounted to 0.938. TAAGCGCCTG: the switch fluorescence ratio came to 0.994. As to TCTCACCGCA, the switch fluorescence ratio is 3.73. Take TGTAGGGGCC: the switch fluorescence ratio amounted to 1.11. On to ACACGACCCG, for which the switch fluorescence ratio amounted to 1.08. Turning to CAGTCCCTAT, the switch fluorescence ratio was 1. On to TTACTTATAT, for which the switch fluorescence ratio was 0.988.

In the case of TGTAGTTACC, the switch fluorescence ratio turned out to be 1.02. ACAGACTGTT: the switch fluorescence ratio is 0.981. Under AACCTTGTCG stands 1.11; under GAGCCAATTC, 1.71. With TCAGTTCTA, the switch fluorescence ratio came to 0.975.

On to TGGTTATATA, for which the switch fluorescence ratio worked out at 1.04. Turning to ACGAATGAAT, the switch fluorescence ratio is 1.16. Then AGAACCAGAC, with 1.72. Then GAACACGAGC, with 1.08; and GACTAGGTAT, with 0.999; and CGCCAGGTTT, with 1.39. In the case of ACCGGACTTC, the switch fluorescence ratio is 1.07. Under GCTTATCGAC stands 1.06. Regarding GCTGGTAGAG, the switch fluorescence ratio came to 1. Take AAGAATATGG: the switch fluorescence ratio is 0.962.

For ACATTCTGGT, the switch fluorescence ratio is 0.968. Then AATGGTTAAC, with 0.979; and GATCTAAATA, with 1.01; and ATTTGATTCC, with 1.06. Then TGGATGCCTA, with 1.07; and CAGGCATCTT, with 1.

In the case of TATAGCGCGG, the switch fluorescence ratio is 1.01. As to CAATAGAGGT, the switch fluorescence ratio was found to be 1.

With TATGGCAGAT, the switch fluorescence ratio was 1.05. GGGGCCCGAC: the switch fluorescence ratio is 1.01. Under CGATGGTGCT stands 1. In the case of ATTGTTTTAT, the switch fluorescence ratio worked out at 1.01. For the sequence CGGGAGGCTT, the switch fluorescence ratio turned out to be 1.02. Under TCGGCCGGTT stands 1.03. Under GATTAGGTTC stands 0.979; under ATATTGCAAT, 0.972; under TACTACGTGG, 1.02. Consider GAGGGCTGAC, for which the switch fluorescence ratio stood at 1.16. On to ATAAATACGC, for which the switch fluorescence ratio stood at 1.02. Regarding GCTTTCTTCG, the switch fluorescence ratio was determined as 1.2.

For GTTCGCGTGG, the switch fluorescence ratio was 0.938. In the case of GATATAATAA, the switch fluorescence ratio was found to be 0.941. Take CCCGAGGATG: the switch fluorescence ratio stood at 1.11.

Consider GGGGTATCAG, for which the switch fluorescence ratio is 1.03. Turning to AACAGAGCCG, the switch fluorescence ratio was found to be 1.06. AATTCGTTT: the switch fluorescence ratio worked out at 0.973. GATACGT: the switch fluorescence ratio is 1.07. TGATAGGCAA: the switch fluorescence ratio was 2.13. Consider CGTTTATAAG, for which the switch fluorescence ratio amounted to 0.969. Under GCTTAATGAA stands 0.964; under GAACGGTGGT, 1.02; under TAGCTTGAAT, 0.985.

With CACGGTCAAA, the switch fluorescence ratio turned out to be 1.06.

In the case of AAGGAGAGTA, the switch fluorescence ratio turned out to be 0.989. For TTATGTCGGG, the switch fluorescence ratio was 1. Then CAAAAGGGTA, with 1.01. For CCTGAGAAAG, the switch fluorescence ratio was determined as 1.03. As for TTGATGCCAT, the switch fluorescence ratio was 1.21. Regarding ATCGTGCA, the switch fluorescence ratio amounted to 1.03. Turning to AAACACGGAT, the switch fluorescence ratio is 1.04. Regarding TCCTCTCGAC, the switch fluorescence ratio turned out to be 3.72.

For CTCGTCATAA, the switch fluorescence ratio is 1.17. On to GGGTTACTGA, for which the switch fluorescence ratio worked out at 1.03. Under GAAATGAGCT stands 1; under GTGTGATGCA, 0.948; under GGCCTGGTGG, 0.997. On to TTCCAGTTAG, for which the switch fluorescence ratio worked out at 1.03. For CTACAATCTT, the switch fluorescence ratio amounted to 1.13. Then TACACCCCGT, with 1.09; and ATCCCGGGCT, with 1. As for TCGGCGCTAG, the switch fluorescence ratio was found to be 0.98. In the case of GCGAGGGGTC, the switch fluorescence ratio came out at 0.996.

With AAGGGAATTC, the switch fluorescence ratio came to 1.03. For the sequence AATGGCTT, the switch fluorescence ratio is 1.01. For CCCAATATGG, the switch fluorescence ratio turned out to be 1.13. Under AGTACTGTTG stands 1.

For the origin of these results see the supplement of paper PMC10126150.
